Experimental data as given in PubChem BioAssay AID488969 (Vanderbilt High Throughput Screening Facility, 2010).
Whole data set: some 110,000 compounds, median “z-score” near -0.1, cut for the highest 2% near 2. This is one part of the list. Calls of active or inactive are those of the source.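 How the source made its calls: active means z-score in the third read window above 3 or below -3; inactive means the rest.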

Target: Metabotropic glutamate receptor 8 (Rattus norvegicus) (UniProt P70579)
Assay: rat mGluR8 modulators via GIRK flux, primary screen, cell-based, thallium flux, HTS (AID 488969)
Details: HEK293 rat mGluR8, GIRK (G protein-gated inwardly rectifying potassium channel) thallium flux, FluoZin2; at 10 µM; stronger effect = higher value; submaximal glutamate (EC20) added with thallium

Sequence of UniProt P70579 (P70579 whole entry, looked up): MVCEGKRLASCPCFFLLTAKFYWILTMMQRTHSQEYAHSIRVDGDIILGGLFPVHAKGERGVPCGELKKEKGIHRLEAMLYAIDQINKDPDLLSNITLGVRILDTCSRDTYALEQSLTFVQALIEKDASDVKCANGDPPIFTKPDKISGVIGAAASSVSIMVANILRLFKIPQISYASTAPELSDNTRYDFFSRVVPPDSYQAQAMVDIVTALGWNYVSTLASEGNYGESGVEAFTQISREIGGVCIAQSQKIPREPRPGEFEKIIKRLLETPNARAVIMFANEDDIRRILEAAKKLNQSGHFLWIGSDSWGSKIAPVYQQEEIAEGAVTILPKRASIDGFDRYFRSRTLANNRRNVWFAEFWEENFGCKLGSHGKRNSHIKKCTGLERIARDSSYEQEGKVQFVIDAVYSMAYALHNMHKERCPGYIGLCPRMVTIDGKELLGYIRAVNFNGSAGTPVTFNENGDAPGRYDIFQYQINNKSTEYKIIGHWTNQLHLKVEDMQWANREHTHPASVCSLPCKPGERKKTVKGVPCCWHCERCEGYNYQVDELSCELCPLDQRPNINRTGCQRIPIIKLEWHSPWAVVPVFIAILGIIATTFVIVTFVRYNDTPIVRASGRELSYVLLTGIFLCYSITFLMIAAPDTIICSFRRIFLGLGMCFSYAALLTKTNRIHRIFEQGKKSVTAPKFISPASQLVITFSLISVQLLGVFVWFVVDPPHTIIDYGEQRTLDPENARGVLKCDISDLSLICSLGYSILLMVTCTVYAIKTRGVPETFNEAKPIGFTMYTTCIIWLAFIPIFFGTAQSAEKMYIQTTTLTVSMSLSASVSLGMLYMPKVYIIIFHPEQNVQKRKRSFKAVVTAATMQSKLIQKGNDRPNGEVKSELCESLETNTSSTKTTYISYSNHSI

How did the z-score turn out when `O=C1C2C3C=CC(C3)C2C(=O)N1CN(Cc1ccccc1)CN1C(=O)C2C3C=CC(C3)C2C1=O` (stereo not drawn) was run?
Its z-score is 0.0355.

Which z-score does the source give for `O=C(COC(=O)CCCSc1nc2ccccc2[nH]1)Nc1ccc(Oc2ccccc2)cc1` here?
The z-score was -0.0806.

Which z-score does the source give for `CCOCC(=O)Nc1cccc(OC)c1` here?
The z-score was 0.0272.

For `CCCCC1CC1C(=O)Nc1ncc2c(n1)CC(C)(C)CC2=O` (stereo not drawn), which z-score is on record?
The z-score was -0.185.

`CCOc1ccc(N(CC(=O)NC2CCCCCC2)S(=O)(=O)c2c(C)noc2C)cc1` was tested. Which z-score did it give?
The z-score was 0.0414.

Which z-score does the source give for `COc1ccccc1NS(=O)(=O)c1cccc(NC(=O)c2nc3nc(C)cc(C)n3n2)c1` here?
Its z-score is -0.0384.

With `CCOC(=O)c1ccccc1NC(=O)Cn1cnc2c(cnn2C(C)(C)C)c1=O` as the molecule, how does the z-score read?
The z-score was -0.521.

`O=S1(=O)C[C@@H](O)[C@@H](Nc2ccc(Cl)cc2)C1` was tested. Which z-score did it give?
Its z-score is -0.343.

For `O=S(=O)(c1ccc(-c2csc(Nc3ccc(F)cc3)n2)cc1)N1CCCC1`, which z-score is on record?
The z-score was -0.314.

With `COc1ccccc1CNC(=O)c1cc2c(C)nn(Cc3ccc(F)cc3)c2s1` as the molecule, how does the z-score read?
The z-score was -0.149.

Which z-score does the source give for `Cc1ccc(S(=O)(=O)Cn2nnnc2C(C(C)C)N2CCN(c3nc4ccccc4s3)CC2)cc1` (stereo not drawn) here?
The z-score was 0.142.

Which z-score does the source give for `CCOc1ccc(S(=O)(=O)NC(C)(C)C)cc1-c1nc2c(C(C)(C)C)nn(C)c2c(=O)[nH]1` here?
Its z-score is -0.387.

How did the z-score turn out when `CC(C)=C1SC(N2CCCCC2)=NC1=O` was run?
Its z-score is 1.93.

For `COc1ccc(CN2CCN(C(=O)c3cc(OC)c(OC)c(OC)c3)CC2)cc1OC`, which z-score is on record?
Its z-score is -0.587.

For `O=C1CC(Sc2nnc(-c3ccccc3)o2)C(=O)N1c1ccccc1` (stereo not drawn), which z-score is on record?
Its z-score is -0.0347.

With `COc1ccc(C(c2nnnn2Cc2ccccc2)N2CCN(C(=O)c3ccco3)CC2)cc1OC` (stereo not drawn) as the molecule, how does the z-score read?
The z-score was -0.161.

How did the z-score turn out when `CC(NC(=O)c1cn(C)c2ccc(S(=O)(=O)N3CCCC3)cc2c1=O)c1ccc2c(c1)OCCO2` (stereo not drawn) was run?
The z-score was -0.479.

With `COc1ccc(CC(=O)OCC(=O)Nc2ncc(Cl)cc2Cl)cc1OC` as the molecule, how does the z-score read?
Its z-score is -0.239.

Which z-score does the source give for `Cc1ccc(NC(=O)c2ccc(OC(=O)COc3cccc(Cl)c3)cc2)cc1` here?
Its z-score is -0.283.

`COC(=O)c1ccc(NC(=O)CN2CCCC2)cc1` was tested. Which z-score did it give?
Its z-score is -0.186.

How did the z-score turn out when `Cc1ccc(S(=O)(=O)Nc2c(C)nn(C)c2C)cc1` was run?
Its z-score is -0.0387.

`CCOc1ccc(-n2c(=O)cc(N3CCN(c4ccc(F)cc4)CC3)[nH]c2=O)cc1` was tested. Which z-score did it give?
Its z-score is 0.293.

With `O=C(O)CCC(=O)NC1CCCCC1` as the molecule, how does the z-score read?
Its z-score is -0.0259.

With `Cc1ccc2cc(C(c3nnnn3C3CCCC3)N3CCN(c4ccccc4)CC3)c(=O)[nH]c2c1` (stereo not drawn) as the molecule, how does the z-score read?
The z-score was -0.225.

For `CC(C)(C)c1nc2ccccc2c2nnc(SCC(=O)Nc3nccs3)n12`, which z-score is on record?
Its z-score is -0.153.

Which z-score does the source give for `COc1ccccc1NC(=O)/C(C#N)=C/C=C/c1ccco1` here?
The z-score was -0.162.

With `O=C(c1nc2nc(-c3ccccc3)cc(C(F)(F)F)n2n1)N1CCOCC1` as the molecule, how does the z-score read?
Its z-score is -0.175.

Which z-score does the source give for `COc1ccc(OC)c(NC(=O)CC2SC(=Nc3ccc(F)cc3)N(CCC3=CCCCC3)C2=O)c1` (stereo not drawn) here?
The z-score was 0.0161.

`Cc1cc(C)c(C(=O)Nc2ccc(S(=O)(=O)Nc3onc(C)c3C)cc2)c(C)c1` was tested. Which z-score did it give?
The z-score was 0.0864.

How did the z-score turn out when `COc1ccc(NC(=O)CSc2nnc(-c3ccccn3)n2Cc2ccco2)cc1OC` was run?
Its z-score is active: 5.76.

For `Cc1cc(C)c(OCC(=O)OCCNC(=O)c2cccnc2)c(C)c1`, which z-score is on record?
The z-score was -0.105.

Which z-score does the source give for `COc1ccc(OC)c(-c2cc(C(=O)N3CCN(c4ccccc4)CC3)no2)c1` here?
The z-score was 0.014.

For `NC(=O)C1CCN(C(=O)c2ccc(C(F)(F)F)cc2)CC1`, which z-score is on record?
Its z-score is -0.111.

With `COc1cc(C)c(S(=O)(=O)N2CCN=C2c2ccccc2)cc1C` as the molecule, how does the z-score read?
Its z-score is -0.0711.

Which z-score does the source give for `Nn1c(COc2ccccc2)nc2ccccc2c1=O` here?
Its z-score is -0.368.

With `Brc1ccccc1Cn1c(-c2cscn2)nc2ccccc21` as the molecule, how does the z-score read?
The z-score was -0.656.

Which z-score does the source give for `Cc1ccc(S(=O)(=O)N2CCC(C(=O)N[C@H](C(=O)NCc3ccco3)C(C)C)CC2)cc1` here?
Its z-score is -0.0498.

With `CC(O)c1nc2ccccc2n1Cc1nnc(-c2ccc(Cl)cc2)o1` (stereo not drawn) as the molecule, how does the z-score read?
Its z-score is -0.51.

With `Cc1ccc(NC(=O)CN(C)C(=O)/C=C/c2cccs2)cc1` as the molecule, how does the z-score read?
The z-score was -0.137.

With `CN1C(=O)/C(=C2/C=Cc3ccccc3N2CCCS(=O)(=O)O)SC1=S` as the molecule, how does the z-score read?
Its z-score is 1.32.

For `CCOC(=O)c1cnc2sccn2c1=O`, which z-score is on record?
Its z-score is -0.0404.

Which z-score does the source give for `COc1ccc(C2CC(=O)c3cnc(N4CCN(Cc5ccccc5)CC4)nc3C2)cc1` (stereo not drawn) here?
Its z-score is -0.543.

`COC(=O)c1c(NC(=O)CC2SC(N)=NC2=O)sc2c1CCC(C)C2` (stereo not drawn) was tested. Which z-score did it give?
Its z-score is -0.0667.

With `CCOC(=O)C(C(=O)NCC1CCCO1)C1CCCCC1` (stereo not drawn) as the molecule, how does the z-score read?
The z-score was 0.0731.

`Cc1ccc(S(=O)(=O)n2ccnc2)cc1C` was tested. Which z-score did it give?
The z-score was 0.438.

With `Cc1ccc(NC(=O)CCC(=O)c2cccs2)cc1` as the molecule, how does the z-score read?
Its z-score is 0.186.

`O=C(/C=C/c1ccc(S(=O)(=O)N2CCOCC2)cc1)NCc1ccccc1Cl` was tested. Which z-score did it give?
Its z-score is 0.0451.

How did the z-score turn out when `Cc1ccc(NC(=S)NC(NC(=O)c2ccccc2)C(Cl)(Cl)Cl)c(C)c1` (stereo not drawn) was run?
Its z-score is 0.0523.

With `Cc1[nH]n(-c2ccccc2)c(=O)c1C=Nc1cnc2ccccc2c1` as the molecule, how does the z-score read?
Its z-score is 0.416.

For `O=C(NCc1ccc(Cl)cc1)c1ccc(Cl)cc1[N+](=O)[O-]`, which z-score is on record?
Its z-score is -0.393.

`COc1cccc(C2C(C(=O)OCc3ccccc3)=C(C)Nc3ncnn32)c1OC` (stereo not drawn) was tested. Which z-score did it give?
The z-score was -0.854.

Which z-score does the source give for `Cn1nnnc1SCC(=O)NCc1ccco1` here?
The z-score was 0.275.

Which z-score does the source give for `O=C(CSc1ccccc1)Nc1ccccc1N1CCOCC1` here?
The z-score was -0.457.

`OCCN(CCO)CC(O)Cn1c2ccccc2c2ccccc21` (stereo not drawn) was tested. Which z-score did it give?
Its z-score is -0.258.

How did the z-score turn out when `O=C(NC(=S)N1CCCCCC1)C1CC1` was run?
The z-score was 0.000532.

With `COc1ccc(OC)c(NC(=O)Cn2c(=O)n(CC(=O)NCc3ccco3)c(=O)c3ccccc32)c1` as the molecule, how does the z-score read?
Its z-score is -0.0938.

With `COc1cc(S(=O)(=O)N2CCCCC2)ccc1NC=O` as the molecule, how does the z-score read?
The z-score was -0.951.

How did the z-score turn out when `c1ccc(-c2ccc(Oc3cc(N4CCOCC4)nc(-c4ccccc4)n3)cc2)cc1` was run?
The z-score was -0.145.

How did the z-score turn out when `CCOC(=O)c1ccc(CC(=O)c2ccc(O)cc2O)o1` was run?
Its z-score is -0.000648.

Which z-score does the source give for `Cn1c(C(=O)N2CCCC(C(=O)N3CCN(C(=O)c4ccco4)CC3)C2)cc2sccc21` (stereo not drawn) here?
The z-score was -0.103.

With `Cc1ccc(NC(=O)CNc2ccc(OC(C)C)cc2)cc1` as the molecule, how does the z-score read?
Its z-score is 0.0604.

With `COc1ccc(/C=C/C(=O)Oc2cccc(/C=N/NC(=O)c3cccc(F)c3)c2)cc1` as the molecule, how does the z-score read?
The z-score was -0.0588.

With `CN1c2ccccc2C(C)(C)C12CC(CCl)=NO2` (stereo not drawn) as the molecule, how does the z-score read?
Its z-score is -0.182.

`CC(C(=O)OCC(=O)c1cccc([N+](=O)[O-])c1)N1C(=O)C2C3CCC(C3)C2C1=O` (stereo not drawn) was tested. Which z-score did it give?
The z-score was 0.027.

With `Cc1ccc(N2C(=O)CC(Sc3ccccc3C(=O)O)C2=O)cc1` (stereo not drawn) as the molecule, how does the z-score read?
The z-score was -0.218.

Which z-score does the source give for `O=C(c1ccco1)N1CCN(S(=O)(=O)c2cccs2)CC1` here?
The z-score was 0.337.

With `O=c1c(Cl)c(Nc2cccc(Cl)c2)cnn1-c1nc2ccccc2s1` as the molecule, how does the z-score read?
The z-score was -0.287.

Which z-score does the source give for `N/C(=N\OC(=O)c1cccs1)c1ccccc1` here?
The z-score was -0.0144.
